# In all, about 350,000 compounds went through this assay and about 2,100 (0.6%) were called active. Inconclusive means that the source gave no clear call. Such entries were picked first, then a sample of the others.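 Rule for the calls: active = activity change of -60% or lower, but not beyond a set lower limit; inconclusive = change between -60% and -40%, or beyond the set limit; inactive = change above -40%.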
# Biological target: Relaxin receptor 1 (Homo sapiens) (UniProt Q9HBX9)
# Test: qHTS Assay for Antagonists of the Relaxin Receptor RXFP1
# Settings: HEK293-RXFP1, relaxin-stimulated cAMP HTRF, 30 min; at 57.5 µM; stronger effect = lower value
# % is set by controls: 0 for no effect and ±100 for the full control effect.
# Chain of UniProt Q9HBX9 (Q9HBX9 whole entry, looked up): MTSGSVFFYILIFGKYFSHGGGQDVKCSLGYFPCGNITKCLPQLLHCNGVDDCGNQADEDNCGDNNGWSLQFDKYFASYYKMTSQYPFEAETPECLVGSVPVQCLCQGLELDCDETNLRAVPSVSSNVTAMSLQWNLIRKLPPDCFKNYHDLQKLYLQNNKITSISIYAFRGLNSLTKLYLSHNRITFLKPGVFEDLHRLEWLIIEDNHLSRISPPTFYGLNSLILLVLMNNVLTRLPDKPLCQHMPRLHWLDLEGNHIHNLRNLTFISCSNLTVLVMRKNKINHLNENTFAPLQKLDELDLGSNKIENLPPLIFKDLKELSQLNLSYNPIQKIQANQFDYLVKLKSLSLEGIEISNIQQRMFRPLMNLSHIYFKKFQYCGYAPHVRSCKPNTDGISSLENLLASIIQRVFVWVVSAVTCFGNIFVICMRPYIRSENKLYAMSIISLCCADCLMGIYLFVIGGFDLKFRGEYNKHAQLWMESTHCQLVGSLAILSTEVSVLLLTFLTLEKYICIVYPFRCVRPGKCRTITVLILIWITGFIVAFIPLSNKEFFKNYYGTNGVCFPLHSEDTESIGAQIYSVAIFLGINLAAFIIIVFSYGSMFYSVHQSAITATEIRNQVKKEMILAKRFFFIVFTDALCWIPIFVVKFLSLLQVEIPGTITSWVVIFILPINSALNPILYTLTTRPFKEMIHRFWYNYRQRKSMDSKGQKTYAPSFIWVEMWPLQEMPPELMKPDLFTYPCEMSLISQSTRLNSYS
row,SMILES,"activity change, negative = inhibition"
1,CN(C)CCCNS(=O)(=O)c1ccc(NC2CCCCCC2)c([N+](=O)[O-])c1,inconclusive: -45.7%
2,CSc1ccc2c(c1)C(N1CCN(C)CC1)Cc1ccc(F)cc1S2 (centres undefined),inconclusive: -50%
3,CC(/C=C/c1ccco1)=N\NC(=O)c1cc(Cl)ccc1O,inconclusive: -41.1%
4,COC(=O)Cn1cnc2c(nnn2-c2ccc(OC)cc2)c1=O,inactive: -5.54%
5,O=C(CN1CCN(Cc2ccccc2)CC1)Nc1cccc(S(=O)(=O)N2CCCCCC2)c1,inconclusive: -40.7%
6,CN(C)CCOCCOc1ccc(Cl)cc1C(C)(C)C,inconclusive: -50%
7,CCOC(=O)C1=NN(C(=O)c2ccc(OC)cc2)C(O)(c2ccc(Cl)cc2)C1 (centres undefined),inconclusive: -41.2%
8,O=C1[C@H](CC[C@H](O)c2ccc(F)cc2)[C@@H](c2ccc(O)cc2)N1c1ccc(F)cc1,inconclusive: -59.4%
9,COCc1ccc(CN2CCCC(C(=O)Nc3ccccc3-c3ccc(OC)cc3)C2)o1 (centres undefined),inactive: 27%
10,CC(=O)c1cccc(NC(=O)c2sc(-n3nc(C)c(CCC(C)C)c3C)nc2C)c1,inactive: -14.4%
11,O=C(Nc1cccc(Cl)c1)Nc1cc(S(=O)(=O)N2CCCCC2)ccc1Cl,inactive: -16.3%
12,O=C(N/N=C/c1ccc(OC2CSC2)cc1)c1ccc(CN2CCOCC2)cc1,inconclusive: -42.2%
13,O=C(NCC(c1cccs1)N1CCOCC1)c1cnc(Cl)c(Cl)c1 (centres undefined),inconclusive: -43.1%
14,CCOC(=O)C(Cc1ccccc1)NC(=O)CCCC(=O)c1ccccc1 (centres undefined),inactive: -2.23%
15,CS(=O)(=O)Nc1ccc(-c2n[nH]c(=S)n2-c2ccccc2)cc1,inconclusive: -56.5%
16,COc1ccc(C)cc1NC(=S)N1CC(C)OC(C)C1 (centres undefined),inactive: 0.481%
17,c1ccc(-c2nnc(-c3ccco3)n2-c2ccccc2)cc1,inactive: 22.5%
18,Clc1cccc(CSC2=NCCCN2)c1,inconclusive: -51.7%
19,Cc1ccc(C(NC(=O)N2CCCC2)C(Cl)(Cl)Cl)cc1F (centres undefined),inconclusive: -49.3%
20,O=C(/C=C/c1ccccc1)/C=C/c1ccccc1,active: -66.9%
21,O=C(NCCC1=CCCCC1)C(=O)NCC1OCCCN1S(=O)(=O)c1ccc(F)cc1 (centres undefined),inactive: 1.93%
22,CCn1c2ccccc2c2cc(CN3CCN(Cc4ccc(Cl)cc4)CC3)ccc21,inconclusive: -40.3%
23,O=C(c1cc([N+](=O)[O-])ccc1Cl)N1CCN(c2ccccn2)CC1,inconclusive: -46.1%
24,O=C1OC(c2ccc3c(c2)OCO3)N(C(=O)c2ccc(Cl)c(Cl)c2)c2ccccc21 (centres undefined),inconclusive: -41.9%
